Experimental data as given in PubChem BioAssay AID1963576 (National Center for Advancing Translational Sciences (NCATS), 2024).
Screen size: about 46,000 compounds; about 60 (0.1%) were called active. Not shown: some 3% with an inconclusive outcome. Calls come from the whole dose curve; as a rule, active = well fitted inhibition curve with a large enough effect; inconclusive = small, poorly fitted or top-dose-only effect; inactive = no such curve, though single readings can be large or run the other way. Some of the results follow.

Assay: Primary qHTS assay for Inhibitors of ovarian cancer metastasis using an organotypic tumor microenvironment (TME) model.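 For activity change, negative = inhibition: plate controls were DMSO wells for no effect and tomatine positive control wells for full effect.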 Note: nearly all actives have a fitted effect of over 65% in size.
Conditions: SKOV3ip1-GFP adhesion/invasion on 3D omental model, fluorescence; series mostly up to 45.8 µM; activity change, negative = inhibition: at the top concentration
Summary of the method: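 Primary human omental fibroblast/mesothelial 3D culture pre-formed 48 h. SKOV3ip1-GFP cells added with compounds (0.36-46 umol/L), incubated 2 h RT/16 h 37 C, fixed; GFP cells quantified at 488/509 nm.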

outcome, inactive:
CC(=O)Nc1ccc(S(=O)(=O)N2CCN(c3ccc(C)c(C)c3)CC2)cc1
CC(=O)c1ccc(NC(=O)CSc2nc3c(=O)n(C)c(=O)n(C)c3n2C)cc1
Cc1cc(OCC(=O)Nc2ccc(C(=O)OC3CCCCC3)cc2)ccc1Cl
COc1ccc(OC)c(NC(=O)C2CCN(S(=O)(=O)c3c(C)noc3/C=C/c3ccc(C)cc3)CC2)c1
O=S(=O)(NCc1csc(-c2ccccc2)n1)c1ccccc1
COc1ccc(Cn2c(CNS(=O)(=O)c3ccc(Cl)s3)nc3cccnc32)cc1
Cc1ccc(C(=O)Nc2cc(-c3nc4cc(Cl)ccc4o3)ccc2C)c(C)c1
CCc1ccccc1NC(=O)Cn1c(=O)n(-c2ccccc2)c(=O)c2oc3ccccc3c21
CC(=O)c1ccc(NC(=O)c2cnc(N3CCCC3)nc2C)cc1
COc1ccc(NC(=O)Cn2c(=O)n(Cc3ccco3)c(=O)c3sc4ccccc4c32)cc1OC
O=C(C1CCCCC1)N(Cc1cccnc1)c1nc2ccc(Cl)cc2s1
Cc1ccc(N2CCN(C(=O)c3cn(C)c4ccc(S(=O)(=O)N5CCC(C)CC5)cc4c3=O)CC2C)cc1 (configuration not stated)
Cc1c2cnn(-c3ccccc3)c(=O)c2c(C)n1CC(=O)Nc1ccccc1Br
COc1ccc(C(=O)NCC(=O)OCc2cc(=O)n3nc(C4CCCCC4)sc3n2)cc1
Cc1ccccc1-c1nc(CS(=O)(=O)CC(=O)NCCCN2CCN(C)CC2)c(C)o1
Cc1ccc(SCCNC(=O)CN(c2cccc(C)c2C)S(C)(=O)=O)cc1
CC(=O)Nc1ccc(S(=O)(=O)N2CCC(n3c(C)nc4cccnc43)CC2)cc1
Cc1ccc2c(CNCCc3ccco3)c(C(=O)O)n(Cc3ccc(F)cc3)c2c1
CCOc1ccc(CN(CCc2ccc3c(c2)OCO3)Cc2cc(OC)cc(OC)c2)cc1

Activity change, negative = inhibition, inactive:
Cc1cc(N2CCN(C)CC2)nc2ccc(NC(=O)c3ccccc3F)cc12 -6.77%
CCCSc1nnc(NC(=O)Cc2coc3cc(C)ccc23)s1 2.85%
O=c1c2cccnc2n(Cc2ccc(Cl)cc2)c(=O)n1Cc1ccc(F)cc1 -2.34%
CNC(=O)c1cccc(-n2c(C)nc3cccnc32)c1C 6.93%
Cc1cccc(NC(=O)Nc2ccc(C)c(C)c2)n1 69.5%
O=C(CSc1nnc2[nH]c(=O)cc(-c3ccccc3)n12)Nc1ccccc1C(F)(F)F -7.25%
CC1CCCCN1CCCNC(=O)c1sc2ncccc2c1-n1cccc1 (configuration not stated) 9.35%
O=C(c1c[nH]c2ccc(S(=O)(=O)Nc3ccccc3F)cc2c1=O)N1CCCCCC1 2.11%
CC(C)c1ccc(C(=O)CC2(O)C(=O)N(CCc3ccccc3)c3ccc(Cl)cc32)cc1 (configuration not stated) -15.6%
CCOc1ccc(NC(=O)C(=O)NCCc2sc(-c3ccc(C)cc3)nc2C)cc1 14.6%
COc1cccc(NC(=O)Cn2nc(-c3ccncc3)ccc2=O)c1 21.5%
CNC(=O)C1CCC(Cn2c(=O)c3sccc3n(CC(=O)Nc3cc(C)cc(C)c3)c2=O)CC1 (configuration not stated) -1.46%
COc1ccc(CN2CCc3nc(N4CCN(c5ccc(F)cc5)CC4)ncc3C2)c(OC)c1OC -12.5%
CCOCCCNC(=O)C1CCN(c2nc3ccc(Cl)cc3[nH]2)CC1 6.02%
C=CC(=O)Nc1cccc(Oc2nc(Nc3ccc(N4CCN(C)CC4)cc3OC)ncc2Cl)c1 9.55%
O=C(c1cnn(-c2ccc(F)cc2)c1-n1cccc1)N1CCN(c2cccc(Cl)c2)CC1 1.16%
CCCN1C(=O)c2[nH]nc(-c3ccc(OC)cc3)c2C1c1ccccn1 (configuration not stated) 11.6%
COC(=O)c1sc(N2C(=O)c3oc4cc(C)c(C)cc4c(=O)c3C2c2ccccc2F)nc1C (configuration not stated) 8.62%
Cc1cccc(Cn2c(CN3CCC(C(=O)NCc4ccccc4Cl)CC3)cc3ccccc32)c1 0.175%
Cc1ccc(-n2c(-c3ccc(Br)cc3)nc3c(cnn3-c3ccccc3)c2=O)cc1 0.843%
O=C(Cn1c(=O)n(Cc2ccco2)c(=O)c2ccccc21)Nc1cccc(F)c1 -13.3%
CCOc1cc(C#N)c(NC(=O)c2ccc(OC)c(S(=O)(=O)N3CCCCC3)c2)cc1OCC -5.47%
COc1ccc2c(c1)CC(C(=O)Nc1ccc(Br)c(C)c1)CO2 (configuration not stated) 4.8%
CCN(C(=O)CSc1nc(-c2ccc(C(C)C)cc2)no1)c1ccccc1 -8.38%
O=C(Nc1nnc(S(=O)(=O)N2CCCc3ccccc32)s1)c1ccc(Cl)cc1 12.6%
COc1ccccc1N1CCN(S(=O)(=O)c2ccc(-c3coc(C)n3)cc2)CC1 -15.8%
COc1ccc(-n2nnc(-c3nc(-c4ccc5c(c4)OCO5)no3)c2C)cc1Cl -28.3%
COc1ccc(NC(=O)CSc2nncn3c2cc2occc23)c(OC)c1 -3.58%
COc1cc(C(=O)Nc2ccc(-c3nc4cc(C)c(C)cc4o3)cc2)cc(OC)c1OC -1.73%
CC(C)Oc1ccc(C(=O)N2CCC(c3nc4ccccc4s3)CC2)cc1 0.807%
CCOC(=O)c1ccc(NC(=O)CCc2c(C)nc3cc(-c4ccc(OC)cc4OC)nn3c2C)cc1 49.9%
CCC(C)NC(=O)Cn1c(=O)n(-c2cc(OC)cc(OC)c2)c(=O)c2ccccc21 (configuration not stated) 8.41%
CC1=C(C(=O)NCc2cccc(Cl)c2)C2(CCCCCC2)OC1=O 7.77%
CCOC(=O)c1c(C)oc2nc(C)nc(NCCc3ccc(OCC)cc3)c12 -23.3%
Cc1cc(=O)[nH]c2nnc(SCc3cccc(C(F)(F)F)c3)n12 3.78%
O=C(CSc1nccn1Cc1ccco1)Nc1ccc(OC(F)(F)F)cc1 -2.08%
COc1ccc(C(=O)Nc2ccc(-c3nc4cc(C)ccc4o3)c(O)c2)cc1 -8.96%
CCN1CCC(N(Cc2ccc(F)cc2)C(=O)Nc2ccc(C)c(F)c2)CC1 -19.1%
CCOc1ccc(NC(=O)Cn2cc(C(=O)C3CC3)c3ccccc32)cc1 1.4%
COc1ccc(NC(=O)CCCc2nnc3n(C(C)C)c(=O)c4sccc4n23)cc1Cl 18.3%
CCOc1ccc(NC(=O)Cn2c(=O)nc(-c3ccccc3)c3ccccc32)cc1 11.6%
Cc1ccc(C)c(NC(=O)CSc2cn(CC(=O)N3CCCCC3)c3ccccc23)c1 -7.6%
COc1ccc(OC(=O)c2cc(-c3ccc4c(c3)OCCO4)on2)cc1 -9.73%
